The results in this text go back to article PMC4336329 (PLoS ONE, 2015).

The structures appear in SMILES notation. The campaign covered roughly 310,000 compounds. About 2,200 (0.71%) showed an effect of 50% or more. Effects have a minus sign here. The list shows a part of the results.

Chain of human ether-à-go-go-related gene (hERG) potassium channel (Q12809 whole entry, looked up): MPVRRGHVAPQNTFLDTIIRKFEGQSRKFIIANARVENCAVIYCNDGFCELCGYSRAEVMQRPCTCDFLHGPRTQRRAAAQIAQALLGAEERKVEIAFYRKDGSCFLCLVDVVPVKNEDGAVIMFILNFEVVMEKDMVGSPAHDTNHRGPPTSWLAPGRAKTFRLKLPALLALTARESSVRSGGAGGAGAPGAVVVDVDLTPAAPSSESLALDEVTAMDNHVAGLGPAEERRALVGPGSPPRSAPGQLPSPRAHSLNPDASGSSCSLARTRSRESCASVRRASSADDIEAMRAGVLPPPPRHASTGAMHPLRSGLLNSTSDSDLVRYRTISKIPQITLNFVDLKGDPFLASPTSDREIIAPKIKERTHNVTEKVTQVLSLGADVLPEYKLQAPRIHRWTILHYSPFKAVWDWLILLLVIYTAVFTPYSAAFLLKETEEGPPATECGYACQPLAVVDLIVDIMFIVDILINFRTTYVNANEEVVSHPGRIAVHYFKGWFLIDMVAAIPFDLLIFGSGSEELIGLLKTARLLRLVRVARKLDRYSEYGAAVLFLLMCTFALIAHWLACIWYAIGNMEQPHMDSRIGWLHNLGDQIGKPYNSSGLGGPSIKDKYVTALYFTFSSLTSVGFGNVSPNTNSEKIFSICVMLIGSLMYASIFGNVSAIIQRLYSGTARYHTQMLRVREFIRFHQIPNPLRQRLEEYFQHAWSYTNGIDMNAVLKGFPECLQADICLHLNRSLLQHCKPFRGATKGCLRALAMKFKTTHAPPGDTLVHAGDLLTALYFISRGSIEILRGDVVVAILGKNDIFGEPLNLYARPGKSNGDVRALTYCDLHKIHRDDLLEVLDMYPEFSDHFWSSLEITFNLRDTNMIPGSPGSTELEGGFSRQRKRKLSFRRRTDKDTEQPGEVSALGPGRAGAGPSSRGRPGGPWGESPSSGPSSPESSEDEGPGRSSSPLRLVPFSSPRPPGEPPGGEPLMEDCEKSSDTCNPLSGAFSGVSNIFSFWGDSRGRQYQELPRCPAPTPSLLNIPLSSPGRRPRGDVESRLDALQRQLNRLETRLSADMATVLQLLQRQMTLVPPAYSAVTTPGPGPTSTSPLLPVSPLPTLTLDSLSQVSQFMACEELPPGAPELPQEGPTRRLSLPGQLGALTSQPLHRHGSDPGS

The experiment addresses human ether-à-go-go-related gene (hERG) potassium channel (human, UniProt Q12809). Description: primary screen, population patch clamp on CHO cells stably expressing hERG.
Turning to `CCOC(=O)CC1C(=O)NCCN1S(=O)(=O)c1ccc(C)cc1` (centres unmarked), the “hERG current change (%, negative = inhibition) at 1uM” value is 16.5%. The figure for `C/C(CC(=O)NCC(C)C)=N\NC(=O)COc1cc(C)c(Br)cc1Br` is 1.09%. The figure for `COc1ccc(CNC(=O)C2CC(=O)N(c3ccc(OCC(=O)N4C(C)CCCC4C)cc3)C2)cc1` (centres unmarked) is -24.4%; for `COc1ccc(CNC(=O)CCC(=O)n2ncc3cc(C)ccc32)cc1` it is 2.16%.

Take `CCc1ccc(N2CC(C(=O)OCc3csc(CC(=O)Nc4ccccc4C)n3)CC2=O)cc1` (centres unmarked): the “hERG current change (%, negative = inhibition) at 1uM” value was 11%. The figure for `CC(=O)c1cccc(OCC(O)CNCCc2ccc(Cl)cc2)c1` (centres unmarked) is 10.6%; for `COc1ccc(/C=C2\SC(=S)N(CC(=O)NC3CCS(=O)(=O)C3)C2=O)cc1` (centres unmarked) it is 17.2%.

As for `CCn1c(C(=O)NCc2ccccn2)cc2sccc21`, the “hERG current change (%, negative = inhibition) at 1uM” value came out at 4.37%. Under `CN(C)CCn1c2c(c(SCC(=O)Nc3ccc4c(c3)OCCO4)nc1=O)CCCC2` stands 7.17%. Consider `COc1ccc(-n2ccnc2SCC(=O)Nc2cc(C)on2)cc1`, for which the “hERG current change (%, negative = inhibition) at 1uM” value came out at 12.1%. Take `CCOC(=O)Cc1nnc(NC(=O)c2ccccc2OC)s1`: the “hERG current change (%, negative = inhibition) at 1uM” value is reported as 12.7%.

As to `COc1ccccc1Oc1ccc(NC(=O)c2ccccc2)cc1`, the “hERG current change (%, negative = inhibition) at 1uM” value turned out to be 10.4%. Under `Cc1cc([N+](=O)[O-])nn1CCCC(=O)N1CCN(c2ccccc2)CC1` stands 0.954%. Consider `Cc1cc(C)nc(Sc2nc(C)nc3c2oc2ccccc23)n1`, for which the “hERG current change (%, negative = inhibition) at 1uM” value is 0.955%.

Regarding `CCOc1ccc(-c2cc(C)n3nc(C(N)=O)cc3n2)cc1`, the “hERG current change (%, negative = inhibition) at 1uM” value is 7.16%.

On to `CCOC(=O)C1=C(c2ccccc2)OC(N)=C(C#N)C1c1ccc(Cl)s1` (centres unmarked), for which the “hERG current change (%, negative = inhibition) at 1uM” value came to 6%.

With `O=C(COC(=O)[C@@H]1CC(O)CN1S(=O)(=O)c1ccc([N+](=O)[O-])cc1)NC12CC3CC(CC(C3)C1)C2` (some centres unmarked), the “hERG current change (%, negative = inhibition) at 1uM” value was found to be 1.67%. In the case of `COCCOC(=O)c1c(C)oc2ccc(OCc3ccccc3)cc12`, the “hERG current change (%, negative = inhibition) at 1uM” value is reported as 0.412%.

With `O=C(COC(=O)c1ccccc1SCC(=O)N1CCCC1)NC1CCCCC1`, the “hERG current change (%, negative = inhibition) at 1uM” value came out at 14.6%. The figure for `Cc1ccc(CS(=O)Cc2ccc(C(=O)NC3CCCCC3)o2)cc1` (centres unmarked) is 7.95%. Regarding `CCOc1ccccc1CNc1nc2nc3c(c(=O)n2[nH]1)CCC3`, the “hERG current change (%, negative = inhibition) at 1uM” value worked out at 18.1%.

As to `CCOC(=O)c1ccc(NC(=O)c2nc[nH]c2C(=O)NC2CCN(C(=O)OC(C)(C)C)CC2)cc1`, the “hERG current change (%, negative = inhibition) at 1uM” value is 13.5%. Under `CC(C)CC(NC(=O)c1ccccc1)C(=O)OCC(=O)Nc1ccc(Br)cn1` (centres unmarked) stands 6.08%; under `O=C(CCSc1ccccc1)Nc1ccccc1Br`, 5.93%.

Regarding `CC(C)(C)N1CC23CCC(C[C@@H]2C1=O)O3` (some centres unmarked), the “hERG current change (%, negative = inhibition) at 1uM” value turned out to be 4.22%. Under `CCCCc1nnc(NC(=O)c2cccc(S(=O)(=O)N3CCN(C)CC3)c2)s1` stands 5.56%; under `CCOc1cc2[nH]c(=S)n(CCC(=O)NCc3ccco3)c(=O)c2cc1OCC`, 3.76%.

On to `COc1ccc(-c2ccc(CCC(=O)O)o2)cc1`, for which the “hERG current change (%, negative = inhibition) at 1uM” value was determined as 4.37%.

Regarding `O=C(Nc1nnc(SCC(=O)N2CCCC2)s1)C1CC(=O)N(c2ccc(F)cc2)C1` (centres unmarked), the “hERG current change (%, negative = inhibition) at 1uM” value is 14.7%. `COC(=O)C1=NN[C@H](C(=O)OC(C)(C)C)[C@H]1c1ccccc1`: the “hERG current change (%, negative = inhibition) at 1uM” value is 6.7%. Under `OCC[C@@H]1C[C@H](O)[C@@H](O)[C@@]2(OCCCc3ccccc32)O1` stands 16.3%; under `CC1(C)CC(N2CCCC2)=CC(=[N+]2CCCCC2)C1.[I-]`, 13.4%. The figure for `Cc1nc(N2CCOCC2)c2cc(-c3ccccc3)sc2n1` is 7.87%. The figure for `CCCCN(CCCC)CCNC(=O)c1cn(CC)c2ccc(S(=O)(=O)N3CCc4ccccc4C3)cc2c1=O` is -2.12%; for `CCOc1cccc2sc(Cl)nc12` it is 11.1%. Regarding `COCCN(C(=O)c1oc2ccccc2c1COC)c1c(N)n(CC(C)C)c(=O)[nH]c1=O`, the “hERG current change (%, negative = inhibition) at 1uM” value is 12.8%. The figure for `Cc1ccc2nc(N3CCN(C)CC3)[nH]c2c1.Cl` is 12.9%; for `Cc1ccccc1NC(=O)/C=C1\SC(=O)NC1=O` it is 10.6%. `C=CCC(NC(C)c1ccccc1)c1ccco1` (centres unmarked): the “hERG current change (%, negative = inhibition) at 1uM” value is listed as -6.93%. As for `CCOCCCNC(=S)N1C2CCC1CC(NC(=O)NC13CC4CC(CC(C4)C1)C3)C2` (centres unmarked), the “hERG current change (%, negative = inhibition) at 1uM” value is 9.44%.

On to `CCCNCc1cc(OC)c(OCc2ccccc2)cc1Br.Cl`, for which the “hERG current change (%, negative = inhibition) at 1uM” value is recorded as 8.9%. As to `COc1ccc(NC(=O)CSc2nc(C3CC3)nc3ccccc23)c(OC)c1`, the “hERG current change (%, negative = inhibition) at 1uM” value was determined as 11.5%.

As for `Cc1ccc2sc(N3CCN(CCNC(=O)c4ccco4)CC3)nc2c1C.Cl`, the “hERG current change (%, negative = inhibition) at 1uM” value was -12.6%. The figure for `COc1ccc(C(C)(C)C)cc1NC(=O)COC(=O)c1ncc(Cl)c(Cl)c1Cl` is 6.78%.
